In test [1] the target is Prohibitin 2, endogenous in VSMCs (rat (endogenous in rat VSMCs)) (UniProt Q5XIH7). In words: co-IP; endogenous proteins of VSMCs (mitochondrial fraction for prohibitin 2); anti-COMP or anti-prohibitin 2 antibody against control IgG; western blot.
Test [2] deals with T1, Prohibitin 1, endogenous in VSMCs (UniProt P67779).
T1 sequence: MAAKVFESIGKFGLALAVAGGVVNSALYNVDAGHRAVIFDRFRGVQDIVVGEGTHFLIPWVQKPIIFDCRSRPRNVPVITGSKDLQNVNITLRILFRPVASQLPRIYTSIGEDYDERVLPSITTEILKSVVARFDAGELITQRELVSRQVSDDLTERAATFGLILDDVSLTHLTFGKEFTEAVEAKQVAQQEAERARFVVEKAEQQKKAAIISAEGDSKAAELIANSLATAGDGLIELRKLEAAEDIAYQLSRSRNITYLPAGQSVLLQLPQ
Described as above.

Chains of the proteins cited; added tags and fusions are not shown. Lines headed by an entry give the natural chain unless they say otherwise; changes in a name come on top. Residues count along the entry.
UniProt Q5XIH7: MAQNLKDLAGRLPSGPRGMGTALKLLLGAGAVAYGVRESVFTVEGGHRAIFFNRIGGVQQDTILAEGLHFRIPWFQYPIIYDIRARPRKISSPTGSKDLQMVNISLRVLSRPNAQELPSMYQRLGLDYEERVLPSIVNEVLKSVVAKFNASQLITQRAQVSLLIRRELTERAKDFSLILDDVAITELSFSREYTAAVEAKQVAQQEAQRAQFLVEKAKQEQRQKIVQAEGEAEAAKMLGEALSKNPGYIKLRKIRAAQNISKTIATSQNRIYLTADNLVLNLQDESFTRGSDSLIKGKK
UniProt P35444, residues 20-755: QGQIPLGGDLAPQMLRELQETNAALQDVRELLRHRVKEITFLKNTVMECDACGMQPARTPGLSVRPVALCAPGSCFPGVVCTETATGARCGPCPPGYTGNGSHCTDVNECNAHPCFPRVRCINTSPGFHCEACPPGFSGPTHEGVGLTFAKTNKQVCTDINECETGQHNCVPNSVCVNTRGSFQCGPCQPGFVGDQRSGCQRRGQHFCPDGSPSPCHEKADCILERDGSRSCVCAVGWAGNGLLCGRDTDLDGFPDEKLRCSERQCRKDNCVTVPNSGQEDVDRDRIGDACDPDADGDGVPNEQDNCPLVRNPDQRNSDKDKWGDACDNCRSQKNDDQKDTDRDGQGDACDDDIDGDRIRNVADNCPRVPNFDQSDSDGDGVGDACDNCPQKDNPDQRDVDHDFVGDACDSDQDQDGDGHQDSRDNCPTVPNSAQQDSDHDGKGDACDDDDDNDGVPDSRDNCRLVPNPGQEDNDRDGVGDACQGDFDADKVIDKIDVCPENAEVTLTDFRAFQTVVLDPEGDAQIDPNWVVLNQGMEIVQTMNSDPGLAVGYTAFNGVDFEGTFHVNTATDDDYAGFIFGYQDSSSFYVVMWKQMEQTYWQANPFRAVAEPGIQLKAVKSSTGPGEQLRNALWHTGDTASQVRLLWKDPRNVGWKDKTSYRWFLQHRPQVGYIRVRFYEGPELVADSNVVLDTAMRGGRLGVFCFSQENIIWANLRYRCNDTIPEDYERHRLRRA
UniProt Q9R0G6: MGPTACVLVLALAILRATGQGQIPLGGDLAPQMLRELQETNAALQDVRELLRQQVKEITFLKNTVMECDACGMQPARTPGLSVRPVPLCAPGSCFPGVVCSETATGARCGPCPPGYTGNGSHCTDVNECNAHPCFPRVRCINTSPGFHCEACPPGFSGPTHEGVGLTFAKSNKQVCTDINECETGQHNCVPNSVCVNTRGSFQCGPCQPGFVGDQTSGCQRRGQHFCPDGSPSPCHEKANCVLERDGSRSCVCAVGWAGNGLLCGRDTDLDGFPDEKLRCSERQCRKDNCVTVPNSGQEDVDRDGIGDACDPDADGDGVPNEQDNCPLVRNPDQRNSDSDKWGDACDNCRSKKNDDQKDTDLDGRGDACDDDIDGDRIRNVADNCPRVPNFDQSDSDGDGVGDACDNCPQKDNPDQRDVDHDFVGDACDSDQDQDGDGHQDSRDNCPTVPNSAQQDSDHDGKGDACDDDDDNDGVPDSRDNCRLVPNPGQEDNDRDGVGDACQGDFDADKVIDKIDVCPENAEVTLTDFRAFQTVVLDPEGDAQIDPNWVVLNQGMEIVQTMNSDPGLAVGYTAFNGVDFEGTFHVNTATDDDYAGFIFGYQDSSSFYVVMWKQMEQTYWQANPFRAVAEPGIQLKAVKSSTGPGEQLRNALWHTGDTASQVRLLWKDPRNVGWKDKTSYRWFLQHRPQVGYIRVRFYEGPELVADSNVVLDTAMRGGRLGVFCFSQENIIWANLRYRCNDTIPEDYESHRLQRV
flag-COMP, full-length mouse COMP with N-terminal FLAG, in COS-7 cells: residues 20-755 of Q9R0G6
flag-COMP N-terminus (aa 1-83): residues 20-83 of Q9R0G6
flag-COMP epidermal growth factor (EGF) repeat domain (aa 84-261): residues 84-261 of Q9R0G6
flag-COMP type III repeat domain (aa 266-520): residues 266-520 of Q9R0G6
flag-COMP C-terminus (aa 521-755): residues 521-755 of Q9R0G6
UniProt O35129, residues 201-299: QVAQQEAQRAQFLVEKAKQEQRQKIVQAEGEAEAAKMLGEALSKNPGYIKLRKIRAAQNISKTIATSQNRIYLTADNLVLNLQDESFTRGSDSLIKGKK
UniProt P10719, residues 47-529: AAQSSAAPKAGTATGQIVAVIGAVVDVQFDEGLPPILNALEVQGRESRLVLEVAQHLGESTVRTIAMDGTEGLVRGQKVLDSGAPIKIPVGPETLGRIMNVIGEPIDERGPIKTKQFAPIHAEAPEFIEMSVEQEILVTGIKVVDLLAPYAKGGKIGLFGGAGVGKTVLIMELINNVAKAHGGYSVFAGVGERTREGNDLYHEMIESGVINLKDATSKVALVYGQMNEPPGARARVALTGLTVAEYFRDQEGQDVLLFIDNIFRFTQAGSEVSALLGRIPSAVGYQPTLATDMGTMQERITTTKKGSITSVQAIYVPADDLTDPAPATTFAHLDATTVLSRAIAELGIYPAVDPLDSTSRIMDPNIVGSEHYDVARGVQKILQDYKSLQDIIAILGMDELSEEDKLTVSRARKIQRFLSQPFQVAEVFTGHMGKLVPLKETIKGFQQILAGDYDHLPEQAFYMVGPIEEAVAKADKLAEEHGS

In test [3] the target is Cartilage oligomeric matrix protein (COMP), endogenous in VSMCs (rat (endogenous in rat VSMCs)) (UniProt P35444). The description is as above.
Test [4] has as its target Flag-COMP, full-length mouse COMP with N-terminal FLAG, in HEK293A cells (mouse) (UniProt Q9R0G6). In words: co-IP; HEK293A cells co-transfected with full-length Flag-COMP and 6 × His-prohibitin 2 fragments; precipitated with Flag antibody against control IgG; blot with His antibody.
For test [5], the target named is flag-COMP C-terminus (aa 521-755) (mouse) (UniProt Q9R0G6). In words: co-IP; COS-7 cells co-transfected with pcDNA3.1-prohibitin 2 and flag-COMP full length or single domains; precipitated with flag antibody against IgG; blot with anti-prohibitin 2 antibody.
Test [6] deals with flag-COMP, full-length mouse COMP with N-terminal FLAG, in COS-7 cells (mouse) (UniProt Q9R0G6). Described as above.
Test [7] deals with flag-COMP N-terminus (aa 1-83) (mouse) (UniProt Q9R0G6). Described as above.
Test [8] concerns the target flag-COMP type III repeat domain (aa 266-520) (mouse) (UniProt Q9R0G6). The test is described as above.
Test [9] deals with flag-COMP epidermal growth factor (EGF) repeat domain (aa 84-261) (mouse) (UniProt Q9R0G6). The description is as above.

The values below come from PMC5986769.

These are yes or no findings as the source states them, for the method shown. In cells and extracts the contact can be indirect. Some entries that bind do so weakly or less than the wild type.

For the substance “Cartilage oligomeric matrix protein (COMP), endogenous in VSMCs (from UniProt P35444 20-755)”, the binding result in test [1] and in test [2] was “binds” throughout.
With “Prohibitin 2, endogenous in VSMCs (from UniProt Q5XIH7 1-299)”, the binding entry in test [3] is “binds”.
Consider “6 × His-prohibitin 2 C-terminus (aa 201-299) (from UniProt O35129 201-299) (domain or fragment)”, for which the binding entry in [4] is “binds”.
On to “Prohibitin 2, full-length rat, from pcDNA3.1-prohibitin 2 in COS-7 cells (from UniProt Q5XIH7 1-299)”, for which the binding entry in [5] is reported as “no binding”; in test [6] it was “binds”; in test [7], “no binding”; in [8], “no binding”; in test [9] it was “binds”.
With “ATP synthase subunit β, endogenous in VSMCs (from UniProt P10719 47-529)”, the binding entry in [3] is “no binding”.
